# Source: article PMC6992704
# Sequences of proteins named here, by UniProt entry; tags and fusion partners are left off. A change or cut given only in a name is not applied to a line headed by its entry.
# UniProt Q07157: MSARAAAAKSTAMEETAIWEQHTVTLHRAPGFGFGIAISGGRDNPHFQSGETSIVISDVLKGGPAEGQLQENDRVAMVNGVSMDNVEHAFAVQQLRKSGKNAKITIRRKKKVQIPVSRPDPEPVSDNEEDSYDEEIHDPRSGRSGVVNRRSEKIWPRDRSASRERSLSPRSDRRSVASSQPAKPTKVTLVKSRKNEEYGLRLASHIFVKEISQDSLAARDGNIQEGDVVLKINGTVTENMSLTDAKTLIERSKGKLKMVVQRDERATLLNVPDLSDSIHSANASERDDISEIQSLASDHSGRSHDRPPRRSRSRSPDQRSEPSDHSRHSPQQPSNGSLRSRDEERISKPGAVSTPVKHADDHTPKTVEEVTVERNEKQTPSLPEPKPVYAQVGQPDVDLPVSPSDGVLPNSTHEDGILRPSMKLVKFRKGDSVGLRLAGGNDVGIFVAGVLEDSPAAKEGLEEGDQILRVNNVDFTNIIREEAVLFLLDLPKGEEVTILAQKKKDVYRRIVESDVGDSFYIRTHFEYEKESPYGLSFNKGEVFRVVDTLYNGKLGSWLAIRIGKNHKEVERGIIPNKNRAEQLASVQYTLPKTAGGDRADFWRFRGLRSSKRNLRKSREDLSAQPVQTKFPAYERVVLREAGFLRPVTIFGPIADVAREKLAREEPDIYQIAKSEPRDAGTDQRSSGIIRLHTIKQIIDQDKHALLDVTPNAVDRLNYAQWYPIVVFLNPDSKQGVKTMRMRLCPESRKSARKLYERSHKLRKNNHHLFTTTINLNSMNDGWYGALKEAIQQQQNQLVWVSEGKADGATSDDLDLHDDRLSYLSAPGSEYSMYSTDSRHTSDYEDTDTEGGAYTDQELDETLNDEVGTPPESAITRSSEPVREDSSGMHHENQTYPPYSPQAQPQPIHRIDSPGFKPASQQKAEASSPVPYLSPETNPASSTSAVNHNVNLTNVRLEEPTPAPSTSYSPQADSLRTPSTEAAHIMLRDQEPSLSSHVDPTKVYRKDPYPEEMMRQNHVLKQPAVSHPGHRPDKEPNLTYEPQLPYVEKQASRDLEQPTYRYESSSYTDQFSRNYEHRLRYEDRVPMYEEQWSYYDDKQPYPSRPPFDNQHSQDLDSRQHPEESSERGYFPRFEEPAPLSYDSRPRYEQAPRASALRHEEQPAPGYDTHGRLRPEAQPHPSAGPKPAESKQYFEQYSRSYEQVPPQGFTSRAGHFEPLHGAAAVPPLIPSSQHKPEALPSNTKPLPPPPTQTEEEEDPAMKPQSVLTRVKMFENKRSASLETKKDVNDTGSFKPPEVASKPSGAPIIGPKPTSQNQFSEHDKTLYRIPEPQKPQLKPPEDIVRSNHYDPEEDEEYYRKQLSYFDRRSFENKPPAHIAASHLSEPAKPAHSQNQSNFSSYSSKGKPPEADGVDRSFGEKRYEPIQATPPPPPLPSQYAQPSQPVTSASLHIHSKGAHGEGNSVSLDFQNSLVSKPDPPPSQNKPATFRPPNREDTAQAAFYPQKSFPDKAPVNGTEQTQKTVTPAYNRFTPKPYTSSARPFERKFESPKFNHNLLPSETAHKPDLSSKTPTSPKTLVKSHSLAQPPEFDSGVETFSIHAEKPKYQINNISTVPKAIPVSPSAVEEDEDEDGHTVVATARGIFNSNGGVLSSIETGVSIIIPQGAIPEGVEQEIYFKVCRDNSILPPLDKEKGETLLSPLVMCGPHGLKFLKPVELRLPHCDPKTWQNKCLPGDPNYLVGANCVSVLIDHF
# UniProt P39447: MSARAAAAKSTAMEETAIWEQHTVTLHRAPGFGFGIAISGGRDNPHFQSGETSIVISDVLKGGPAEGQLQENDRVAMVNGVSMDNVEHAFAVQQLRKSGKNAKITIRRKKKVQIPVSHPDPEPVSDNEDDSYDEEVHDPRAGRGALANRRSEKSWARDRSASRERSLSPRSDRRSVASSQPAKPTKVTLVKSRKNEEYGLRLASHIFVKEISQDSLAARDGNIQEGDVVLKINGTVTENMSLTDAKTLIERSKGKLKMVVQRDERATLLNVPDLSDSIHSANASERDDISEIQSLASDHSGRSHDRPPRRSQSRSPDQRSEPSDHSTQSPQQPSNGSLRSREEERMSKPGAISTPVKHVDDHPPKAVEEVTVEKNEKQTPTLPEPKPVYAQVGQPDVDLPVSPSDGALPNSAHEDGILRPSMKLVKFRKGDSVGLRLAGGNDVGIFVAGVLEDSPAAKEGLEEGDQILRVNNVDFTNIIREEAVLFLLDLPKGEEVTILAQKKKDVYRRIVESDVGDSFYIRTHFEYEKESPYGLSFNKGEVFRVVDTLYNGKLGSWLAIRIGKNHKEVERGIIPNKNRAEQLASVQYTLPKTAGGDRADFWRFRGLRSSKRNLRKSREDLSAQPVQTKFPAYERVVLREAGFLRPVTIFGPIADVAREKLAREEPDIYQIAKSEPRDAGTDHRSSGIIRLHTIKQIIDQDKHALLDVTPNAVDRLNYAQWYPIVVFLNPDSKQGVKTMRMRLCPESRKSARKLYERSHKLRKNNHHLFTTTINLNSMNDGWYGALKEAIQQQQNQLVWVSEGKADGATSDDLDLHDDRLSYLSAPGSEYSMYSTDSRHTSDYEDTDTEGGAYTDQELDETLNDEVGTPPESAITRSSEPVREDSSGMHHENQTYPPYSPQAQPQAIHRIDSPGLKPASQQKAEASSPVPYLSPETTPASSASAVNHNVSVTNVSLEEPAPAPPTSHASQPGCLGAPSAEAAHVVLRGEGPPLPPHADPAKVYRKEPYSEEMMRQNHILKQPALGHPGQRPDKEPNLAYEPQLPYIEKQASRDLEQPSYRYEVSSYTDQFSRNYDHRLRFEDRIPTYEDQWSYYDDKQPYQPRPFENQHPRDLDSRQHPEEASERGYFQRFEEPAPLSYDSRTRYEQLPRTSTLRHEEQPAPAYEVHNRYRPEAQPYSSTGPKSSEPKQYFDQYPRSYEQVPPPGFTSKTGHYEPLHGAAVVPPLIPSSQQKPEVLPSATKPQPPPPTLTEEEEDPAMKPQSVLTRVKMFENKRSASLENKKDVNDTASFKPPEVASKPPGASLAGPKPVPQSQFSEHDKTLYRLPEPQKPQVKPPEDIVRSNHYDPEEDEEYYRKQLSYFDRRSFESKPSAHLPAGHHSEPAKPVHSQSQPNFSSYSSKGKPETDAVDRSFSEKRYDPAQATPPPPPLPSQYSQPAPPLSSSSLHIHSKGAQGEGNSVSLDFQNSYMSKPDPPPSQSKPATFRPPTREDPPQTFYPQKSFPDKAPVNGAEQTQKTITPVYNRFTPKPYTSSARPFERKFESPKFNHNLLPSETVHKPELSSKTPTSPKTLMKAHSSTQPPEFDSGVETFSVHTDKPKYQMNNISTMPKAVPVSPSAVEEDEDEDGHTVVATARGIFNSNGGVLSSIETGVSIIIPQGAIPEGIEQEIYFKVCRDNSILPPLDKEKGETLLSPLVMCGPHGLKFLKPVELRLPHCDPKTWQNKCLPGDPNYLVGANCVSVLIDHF
# UniProt O00327: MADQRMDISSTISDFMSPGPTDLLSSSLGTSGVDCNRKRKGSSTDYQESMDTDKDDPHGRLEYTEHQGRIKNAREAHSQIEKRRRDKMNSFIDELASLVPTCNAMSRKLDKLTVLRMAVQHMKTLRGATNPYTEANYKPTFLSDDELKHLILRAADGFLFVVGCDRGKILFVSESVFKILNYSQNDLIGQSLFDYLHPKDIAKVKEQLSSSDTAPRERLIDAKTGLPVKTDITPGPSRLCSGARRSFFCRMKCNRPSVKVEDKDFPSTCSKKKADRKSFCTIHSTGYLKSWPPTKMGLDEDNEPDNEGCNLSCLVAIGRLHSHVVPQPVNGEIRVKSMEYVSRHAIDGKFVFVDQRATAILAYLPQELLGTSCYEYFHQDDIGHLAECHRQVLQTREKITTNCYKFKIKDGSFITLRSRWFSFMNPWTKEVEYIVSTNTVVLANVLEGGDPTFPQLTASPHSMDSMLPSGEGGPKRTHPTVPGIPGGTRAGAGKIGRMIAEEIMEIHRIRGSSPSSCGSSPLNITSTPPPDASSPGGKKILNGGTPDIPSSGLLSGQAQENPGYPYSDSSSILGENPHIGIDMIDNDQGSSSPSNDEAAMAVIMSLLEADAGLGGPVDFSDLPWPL
# UniProt O35973: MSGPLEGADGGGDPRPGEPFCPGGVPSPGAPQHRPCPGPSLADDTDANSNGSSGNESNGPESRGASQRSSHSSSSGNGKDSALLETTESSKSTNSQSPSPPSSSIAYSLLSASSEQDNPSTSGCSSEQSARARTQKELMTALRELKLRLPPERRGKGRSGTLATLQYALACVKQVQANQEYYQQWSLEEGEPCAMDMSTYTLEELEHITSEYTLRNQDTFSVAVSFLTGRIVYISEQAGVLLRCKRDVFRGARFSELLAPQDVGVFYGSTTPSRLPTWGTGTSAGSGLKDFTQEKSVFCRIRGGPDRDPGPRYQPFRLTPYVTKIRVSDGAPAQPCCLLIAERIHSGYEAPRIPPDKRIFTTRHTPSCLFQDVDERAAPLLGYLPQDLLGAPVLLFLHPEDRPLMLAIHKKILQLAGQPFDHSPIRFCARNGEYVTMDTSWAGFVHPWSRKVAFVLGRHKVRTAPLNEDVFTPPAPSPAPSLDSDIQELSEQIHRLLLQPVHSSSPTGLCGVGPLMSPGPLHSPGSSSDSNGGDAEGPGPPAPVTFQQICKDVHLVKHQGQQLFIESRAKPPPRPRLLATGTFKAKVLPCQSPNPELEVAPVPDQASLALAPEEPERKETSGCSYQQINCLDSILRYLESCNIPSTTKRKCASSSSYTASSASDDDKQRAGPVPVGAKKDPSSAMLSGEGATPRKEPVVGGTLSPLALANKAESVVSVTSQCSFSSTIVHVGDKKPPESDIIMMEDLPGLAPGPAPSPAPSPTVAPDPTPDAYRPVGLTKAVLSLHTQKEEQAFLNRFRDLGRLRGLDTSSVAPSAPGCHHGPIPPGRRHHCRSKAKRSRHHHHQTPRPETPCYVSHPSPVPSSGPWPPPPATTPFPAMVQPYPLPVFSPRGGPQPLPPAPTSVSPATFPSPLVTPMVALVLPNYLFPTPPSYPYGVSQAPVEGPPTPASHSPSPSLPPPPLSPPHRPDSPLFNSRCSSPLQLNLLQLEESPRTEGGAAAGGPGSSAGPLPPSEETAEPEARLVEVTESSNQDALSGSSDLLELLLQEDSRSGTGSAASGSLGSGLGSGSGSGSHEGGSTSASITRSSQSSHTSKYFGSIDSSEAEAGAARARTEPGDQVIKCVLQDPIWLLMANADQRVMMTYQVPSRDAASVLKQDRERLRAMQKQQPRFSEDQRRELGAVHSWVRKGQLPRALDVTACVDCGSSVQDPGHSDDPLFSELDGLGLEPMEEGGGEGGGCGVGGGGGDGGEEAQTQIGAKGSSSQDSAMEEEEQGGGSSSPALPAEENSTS
# These are yes or no findings as the source states them, for the method shown. For some of these results: Binding seen in cells or lysates may run through a third protein. Some binding calls cover weakened binding; strength is not graded here.
# B1: CLOCK (circadian locomotor output cycles kaput) (protein, UniProt O15516 1-846)
# chain: MLFTVSCSKMSSIVDRDDSSIFDGLVEEDDKDKAKRVSRNKSEKKRRDQFNVLIKELGSMLPGNARKMDKSTVLQKSIDFLRKHKEITAQSDASEIRQDWKPTFLSNEEFTQLMLEALDGFFLAIMTDGSIIYVSESVTSLLEHLPSDLVDQSIFNFIPEGEHSEVYKILSTHLLESDSLTPEYLKSKNQLEFCCHMLRGTIDPKEPSTYEYVKFIGNFKSLNSVSSSAHNGFEGTIQRTHRPSYEDRVCFVATVRLATPQFIKEMCTVEEPNEEFTSRHSLEWKFLFLDHRAPPIIGYLPFEVLGTSGYDYYHVDDLENLAKCHEHLMQYGKGKSCYYRFLTKGQQWIWLQTHYYITYHQWNSRPEFIVCTHTVVSYAEVRAERRRELGIEESLPETAADKSQDSGSDNRINTVSLKEALERFDHSPTPSASSRSSRKSSHTAVSDPSSTPTKIPTDTSTPPRQHLPAHEKMVQRRSSFSSQSINSQSVGSSLTQPVMSQATNLPIPQGMSQFQFSAQLGAMQHLKDQLEQRTRMIEANIHRQQEELRKIQEQLQMVHGQGLQMFLQQSNPGLNFGSVQLSSGNSSNIQQLAPINMQGQVVPTNQIQSGMNTGHIGTTQHMIQQQTLQSTSTQSQQNVLSGHSQQTSLPSQTQSTLTAPLYNTMVISQPAAGSMVQIPSSMPQNSTQSAAVTTFTQDRQIRFSQGQQLVTKLVTAPVACGAVMVPSTMLMGQVVTAYPTFATQQQQSQTLSVTQQQQQQSSQEQQLTSVQQPSQAQLTQPPQQFLQTSRLLHGNPSTQLILSAAFPLQQSTFPQSHHQQHQSQQQQQLSRHRTDSLPDPSKVQPQ
# Tests used:
# [1] = target: HA-tagged TJP1 (pcDNA3 with HA tag) (human) (UniProt Q07157); experiment: co-IP; TJP1-overexpressing cells in lysis buffer (150 mM NaCl, 50 mM HEPES pH 7.4, 1% Triton X-100); HA-tagged TJP1 immunoprecipitated with HA-beads; washed at least four times; cell type not stated
# [2] = target: mCherry-tagged TJP1 6D (T589D/T709D/S927D/S1360D/S1460D/S1617D mutant of human TJP1) (human) (UniProt Q07157); experiment: co-IP; mouse primary hepatocytes expressing FLAG-PER1 and mCherry-tagged TJP1 or mutants, in the presence or absence of amino acids; mCherry-tagged TJP1 immunoprecipitated by anti-mCherry antibody
# [3] = target: mCherry-tagged TJP1 6A (T589A/T709A/S927A/S1360A/S1460A/S1617A mutant of human TJP1) (human) (UniProt Q07157); experiment: as above
# [4] = target: mCherry-tagged TJP1 (human) (UniProt Q07157); experiment: as above
# [5] = target: His-HA-tagged TJP1, purified (human) (UniProt Q07157); experiment: co-IP; in vitro co-IP; purified fusion proteins; both purified
# [6] = target: endogenous TJP1 (tight junction protein 1) (mouse (endogenous in primary hepatocytes and liver)) (UniProt P39447); experiment: co-IP; endogenous proteins of mouse liver extracts harvested at ZT6 and ZT18; TJP1 immunoprecipitated with anti-TJP1 antibody and Protein A/G Plus Agarose, rabbit IgG as negative control
# [7] = target: endogenous TJP1 (tight junction protein 1) (mouse (endogenous in primary hepatocytes and liver)) (UniProt P39447); experiment: co-IP; endogenous proteins of mouse primary hepatocytes in a collagen sandwich; TJP1 immunoprecipitated with anti-TJP1 antibody and Protein A/G Plus Agarose, rabbit IgG as negative control; cells treated with amino acids and/or 250 nM Torin1
molecule,measurement,setting,value
BMAL1 (brain and muscle ARNT-like 1) (from UniProt O00327 1-626),binding,[1],no binding
FLAG-PER1 (1-1147) (from UniProt O35973 1-1147) (domain or fragment),binding,[1],binds
"FLAG-PER1 (wildtype PER1), co-IP of Supplementary Fig. 2b (from UniProt O35973 1-1291)",binding,[1],binds
FLAG-PER1 in mouse primary hepatocytes (from UniProt O35973 1-1291),binding,[2],no binding
same,binding,[3],binds
same,binding,[4],binds
"His-PER1 fusion protein, purified (from UniProt O35973 1-1291)",binding,[5],binds
endogenous PER1 (period circadian regulator 1) (from UniProt O35973 1-1291),binding,[6],binds
same,binding,[7],binds
B1,binding,[1],no binding
